Experimental data taken from ChEMBL document CHEMBL4888484, “Replenishing the malaria drug discovery pipeline: Screening and hit evaluation of the MMV Hit Generation Library 1 (HGL1) against asexual blood stage Plasmodium falciparum ,using a nano luciferase reporter read-out” (2022).
Hit rate of the full screen: of about 150,000 compounds, about 540 (0.36%) showed an effect of 50% or more. This is one part of the list.

tested on: Plasmodium falciparum; assay: Primary screen in NF54 nanoGlo assay, in single point, at 2uM, 72h; a lower Z score goes with more inhibition; type: functional, Erythrocyte; details: timepoint 72 hour

SMILES	% Inhibition	Z score
CN(C)S(=O)(=O)CC(=O)NC1(c2cccc(Cl)c2)CCCC1	-9%	1.29
Fc1cncc(NCc2cncs2)c1	-8%	1.09
COCCN(C[C@H]1CCCO1)C(=O)c1cc(C(C)C)cc(C(C)C)c1O	7%	-1.26
CCc1cn[nH]c1[C@H]1CCCN(C(=O)c2nnc3nc(C)ccn23)C1	-7%	1.1
Cn1c(=O)c2nc(N3CCOCC3)n(CC(=O)c3ccccc3)c2n(C)c1=O	33%	-3.72
COc1cccc(NC(=O)N2CCC(N3CCC(CC4CC4)(C(N)=O)CC3)CC2)c1	7%	-0.85
COc1cccc(C(=O)Nn2c(C)nnc2-n2nc(C)cc2C)c1	-27%	3.21
Cc1ccc(Nc2nc3ccccc3nc2[C@@H](C#N)S(=O)(=O)c2ccc(Cl)cc2)cc1C	0%	0.01
CCOC(=O)N1CCN(c2nc(Nc3ccc(OC)cc3)c3cn[nH]c3n2)CC1	-32%	4.11
CCc1nnc2n1CCN(Cc1cc(-c3ccccc3)no1)C2	-12%	2.3
c1coc(-c2noc(CN3CCn4ccnc4C3)n2)c1	-15%	1.76
O=c1cc(C(F)(F)F)[nH]c2nc(-c3cccnc3)nn12	9%	-1.19
C#CCCC1(CCC(=O)N2CC(OC(F)F)C2)N=N1	-5%	0.64
Cc1nccc(C(=O)N(Cc2ccccc2)CC(F)F)n1	6%	-0.94
O=C(Cc1ccoc1)N[C@H](CO)CN1CCCCC1	-8%	1.23
O=C1CC[C@]2(C(=O)NCc3ccc(Cl)cc3)CCC=C2N1C1CCCC1	-8%	0.99
CC1CCCN(c2ccc(C#N)cc2Br)C1CN (stereo not drawn)	-5%	0.96
COc1cccc(CN2CC[C@H]3COC(=O)N3c3ccc(OC)cc3C2)c1	9%	-1.08
CCC(C)C(NC(=O)Nc1ccc(Cl)cc1)C(=O)O (stereo not drawn)	0%	0.02
CCCN(CC1CC1)C(=O)[C@@H]1Cc2[nH]cnc2C2(CCCC2)N1	-5%	1.01
Cc1nc(C)n(CCCNC(=O)[C@H](C)n2cc(Cl)cn2)n1	14%	-2.65

SMILES	% Inhibition	Z score
O=C(c1csc(=O)[nH]1)N1CCc2ccc(F)c(F)c2C1	-1%	0.18
CCC(=O)Nc1ccc2c(c1)cc(C(=O)NCCc1ccccn1)n2Cc1cccc(F)c1	-4%	0.51
CCCCS(=O)(=O)N1CC[C@H](CC(=O)NCc2ccccc2)C1	35%	-5.13
CCC(CC)[C@H](NC(=O)CS(=O)(=O)C(C)C)c1cccs1	-15%	2.93
Cc1cc(CN2C[C@@H](C)N(Cc3cc(C)ncn3)[C@@H](C)C2)ncn1	-6%	1.16
O=C1N(C/C=C/c2ccccc2)c2ccccc2[C@@]1(O)c1c[nH]c2ccccc12	-5%	0.93
Cc1cc(O[C@H]2CCN(C(=O)c3nc4ccccc4s3)C2)cc(=O)n1C	-1%	0.09
CC(C)c1cc(CN2CC[C@H](c3ccnc(-c4cccc(O)c4)c3)C2)on1	-14%	2.13
Cc1cccc(S(=O)(=O)N2CCN(Cc3nc4cc(-c5ccccc5)ccc4o3)CC2)c1	-6%	0.74
CCc1ccc([C@H](C)NC(=O)c2nnn3c2c(=O)[nH]c2cc(C)ccc23)cc1	-2%	0.33
CCCCNC(=O)[C@H]1CNC[C@@H](COc2ccc3c(c2)CCC3)C1	-6%	0.75
COCCN(CCC(=O)NCCN1CCOCC1)c1nc(-c2ccco2)nc2cc(Cl)ccc12	-1%	0.23
O=C(CC[C@@H]1CNC(=O)[C@@H]2C[C@H](NC(=O)c3ccc(F)c(Cl)c3)CN12)NCc1ccccc1	31%	-3.48
CN(CCN1CCCCC1=O)c1nc2c(c(=O)[nH]1)Cc1ccccc1OC2	-1%	0.11
Cc1ccsc1-c1cccc(C(=O)N2CCC[C@H](N)CC2)c1	8%	-0.82
Cc1noc(C[C@H]2CCCN(Cc3nnnn3C(C)(C)C)C2)n1	-3%	0.62
CN(C)c1cccc(CNc2ncc(Br)cn2)n1	-8%	0.71
O=S(=O)(c1ccccc1)N1CCN(Cc2cc3c(cc2Br)OCCO3)CC1	9%	-1.47
Cc1cnc([C@H](C)NC(=O)c2cc(C)c(Br)cc2C)o1	-13%	1.43
Cc1nc(-c2ccc(N3CCN(C(=O)NCc4cccs4)CC3)nc2)no1	-8%	1.42
CCC(=O)N1CCCN(S(=O)(=O)C[C@H]2CCC[C@@H]2C)CC1	-3%	0.57

SMILES	% Inhibition	Z score
CC1=C(CCN2CC[C@H](NC(=O)c3cnccn3)[C@@H](O)C2)C(C)(C)CCC1	-13%	1.65
CC(C)[C@H](Cn1nccn1)NS(=O)(=O)c1ccc(Cl)s1	-1%	0.2
CC(CNC(=O)CCC1CCCO1)CN(C)C(=O)OC(C)(C)C (stereo not drawn)	-3%	0.31
O=C(C[C@@H]1COC2(C1)CN(S(=O)(=O)c1ccc3c(c1)CCC3)C2)NCc1ccncc1	5%	-0.84
CCOC(=O)N1CCC(NC(=O)[C@H]2CCCN(S(=O)(=O)c3cccc4nonc34)C2)CC1	0%	0.07
Cc1ccc(-c2nc(C#N)c(S(=O)(=O)N3CCN(CCO)CC3)o2)cc1	1%	-0.08
COC1(CNC(=O)N2CCC[C@H]2c2ccncc2)CCOCC1	5%	-0.59
O=C(c1cn(C2CCCCC2)nn1)N1CCC[C@H](OCc2ccccc2)C1	-5%	0.75
O=C1CN(CCn2cc(Cl)cn2)CCN1CCc1ccccc1	-7%	1.18
CN(C)C(=O)C1C[C@@H]2OCC[C@@H]2N1S(=O)(=O)CCC1CCCCC1 (stereo partly drawn)	2%	-0.34
COc1cccc(NS(=O)(=O)c2c(C)[nH]c(C)c2-c2nc(C3CC3)no2)c1	-9%	1.85
Cc1cccc(Cn2ccc3ccn(CC(=O)Nc4ccc(F)c(F)c4)c(=O)c32)c1	-22%	2.56
CN(C)C(=O)c1ccc(CN2CC[C@@H]3COC(=O)N[C@H]3C2)[nH]1	-1%	0.16
CCCc1occc1C(=O)N[C@@]12CCCC[C@@H]1NC(=O)C2	-13%	1.5
CC(=O)n1ccc(C(=O)Nc2ccc(Cl)c(Cl)c2)n1	-12%	1.57
CCC1C(C)CCN1C(=O)c1cccc(NCc2cncs2)c1 (stereo not drawn)	-20%	2.19
Cc1nc(N2CCN(C(=O)C3CCCC3)CC2)c2cnn(-c3ccccc3Cl)c2n1	-4%	0.65
CC(C)(C)c1cnc(COCc2ncc[nH]2)o1	-2%	0.34
CC(C)n1cnc(C(=O)N2CCCNC(=O)[C@@H]2Cc2ccccc2)c1	-13%	1.29
O=C(O)c1cccc(C(=O)Nc2cccc3[nH]ccc23)n1	-7%	1.12
C#CC(CC)(CC)NC(=O)c1c(C)noc1C	-15%	1.81

SMILES	% Inhibition	Z score
O=C(COc1cccc(-c2noc(-c3ccccc3F)n2)c1)Nc1cccc(Cl)c1	1%	-0.07
CCCN(CCC)S(=O)(=O)c1cc(-c2nc(C)c(C)s2)sc1C	0%	0.04
C#CCN(CC(F)(F)F)S(=O)(=O)c1cnn(C(C)C)c1	-8%	0.85
C[C@@H]1CN(c2nccn3nnnc23)C[C@H](C)N1CC(F)(F)F	2%	-0.36
CN(C)c1ccnc(CNC(=O)C2CCCCC2)n1	-12%	1.83
COc1cccc(CS(=O)(=O)c2cccs2)n1	-7%	0.76
CC(NC(=O)Nc1ccccc1)C(c1cccs1)N1CCCC1 (stereo not drawn)	6%	-0.89
Cc1cc(C)cc(N(C)CC(=O)N2CCNC2=O)c1	-3%	0.51
COCCN1CC2(CCC1=O)CCN(C(=O)[C@@H](c1ccccc1)C(C)C)CC2	-10%	1.12
C[C@@H](NS(=O)(=O)c1ccc2c(c1)OCCO2)c1nnc2n1CCCCC2	-41%	4.8
Cc1ccc(S(=O)(=O)NC2CCC(C)CC2C)o1 (stereo not drawn)	34%	-3.9
CCn1c(=O)ccc2c(OC)ncnc21	-11%	1.85
Cn1cccc1C(=O)N1CCC[C@@H]1CF	-13%	1.48
CN1CCCN(C(=O)C(=O)Nc2ccc(Cl)c(Cl)c2)CC1	-1%	0.26
Cc1ccccc1C(=O)N1CCOC2(CCS(=O)(=O)CC2)C1	-27%	2.86
Cc1nc(CNC(=O)NC2CCCC2)cs1	-10%	1.37
C#C[C@@H]1COCCN1C(=O)c1ccncc1F	-6%	1.15
CCO[C@@H](C)c1nc(Cc2nc(CS(=O)(=O)c3ccccc3)no2)cs1	0%	0
CCCn1ncnc1Cn1nc(C)c(C)c(C#N)c1=O	9%	-1.17
Cc1ccc(F)c([C@@H](CC(=O)NCCN2CCOCC2)c2c[nH]c3ccc(Cl)cc23)c1	11%	-1.37
CCN(CCC(=O)NCCOC)C(=O)c1cc2n(n1)CCCN(Cc1ccc(C)cc1)C2=O	-10%	1.92
